# Data published in the supplement of paper PMC8728848.
# This is one part of the list.
# Assays:
# Assay in all cases: glycan array binding signal (z-score within array); higher = stronger binding
# Conditions in all cases: glycan notation: IUPAC condensed, linker removed
# [1] = target: Neu5Ac(a2-6)Gal(b1-4)GlcNAc(b1-2)Man(a1-3)[Man(a1-6)]Man(b1-4)GlcNAc(b1-4)GlcNAc
# Method in brief: (§1)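 The binding signal is a Z-score computed within each array. Data were drawn from 3228 arrays in the Consortium for Functional Glycomics database, restricted to those with a known protein sequence. Scores were averaged over arrays of the same protein sequence at different concentrations or buffers, and over linkers, and negative values can be taken as non-binding.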
# [2] = target: Neu5Ac(a2-6)Gal(b1-4)GlcNAc(b1-2)Man(a1-3)[Neu5Ac(a2-3)Gal(b1-4)GlcNAc(b1-2)Man(a1-6)]Man(b1-4)GlcNAc(b1-4)GlcNAc
# Method in brief: as §1
# [3] = target: Neu5Ac(a2-6)Gal(b1-4)GlcNAc(b1-2)Man(a1-3)[Neu5Ac(a2-6)Gal(b1-4)GlcNAc(b1-2)Man(a1-6)]Man(b1-4)GlcNAc(b1-4)GlcNAc
# Method in brief: as §1
# [4] = target: Neu5Ac(a2-6)Gal(b1-4)GlcNAc(b1-2)Man(a1-3)[Neu5Ac(a2-6)Gal(b1-4)GlcNAc(b1-2)Man(a1-6)]Man(b1-4)GlcNAc(b1-4)[Fuc(a1-6)]GlcNAc
# Method in brief: as §1
# [5] = target: Neu5Ac(a2-6)Gal(b1-4)GlcNAc(b1-2)Man(a1-6)Man(b1-4)GlcNAc(b1-4)GlcNAc
# Method in brief: as §1
# [6] = target: Neu5Ac(a2-6)Gal(b1-4)GlcNAc(b1-2)Man(a1-6)[Gal(b1-4)GlcNAc(b1-2)Man(a1-3)]Man(b1-4)GlcNAc(b1-4)GlcNAc
# Method in brief: as §1
# [7] = target: Neu5Ac(a2-6)Gal(b1-4)GlcNAc(b1-2)Man(a1-6)[GlcNAc(b1-2)Man(a1-3)]Man(b1-4)GlcNAc(b1-4)GlcNAc
# Method in brief: as §1
# [8] = target: Neu5Ac(a2-6)Gal(b1-4)GlcNAc(b1-2)Man(a1-6)[Man(a1-3)]Man(b1-4)GlcNAc(b1-4)GlcNAc
# Method in brief: as §1
# [9] = target: Neu5Ac(a2-6)Gal(b1-4)GlcNAc(b1-2)[Neu5Ac(a2-6)Gal(b1-4)GlcNAc(b1-4)]Man(a1-3)[GlcNAc(b1-4)][Neu5Ac(a2-6)Gal(b1-4)GlcNAc(b1-2)[Neu5Ac(a2-6)Gal(b1-4)GlcNAc(b1-6)]Man(a1-6)]Man(b1-4)GlcNAc(b1-4)GlcNAc
# Method in brief: as §1
# [10] = target: Neu5Ac(a2-6)Gal(b1-4)GlcNAc(b1-2)[Neu5Ac(a2-6)Gal(b1-4)GlcNAc(b1-4)]Man(a1-3)[GlcNAc(b1-4)][Neu5Ac(a2-6)Gal(b1-4)GlcNAc(b1-4)Man(a1-6)]Man(b1-4)GlcNAc(b1-4)GlcNAc
# Method in brief: as §1
# [11] = target: Neu5Ac(a2-6)Gal(b1-4)GlcNAc(b1-2)[Neu5Ac(a2-6)Gal(b1-4)GlcNAc(b1-6)]Man(a1-6)[Neu5Ac(a2-6)Gal(b1-4)GlcNAc(b1-2)Man(a1-3)][GlcNAc(b1-4)]Man(b1-4)GlcNAc(b1-4)GlcNAc
# Method in brief: as §1
# [12] = target: Neu5Ac(a2-6)Gal(b1-4)GlcNAc(b1-3)Gal(b1-3)GlcNAc
# Method in brief: as §1
# [13] = target: Neu5Ac(a2-6)Gal(b1-4)GlcNAc(b1-3)Gal(b1-4)GlcNAc
# Method in brief: as §1
# [14] = target: Neu5Ac(a2-6)Gal(b1-4)GlcNAc(b1-3)Gal(b1-4)GlcNAc(b1-2)Man(a1-3)[Neu5Ac(a2-6)Gal(b1-4)GlcNAc(b1-3)Gal(b1-4)GlcNAc(b1-2)Man(a1-6)]GalNAc
# Method in brief: as §1
# [15] = target: Neu5Ac(a2-6)Gal(b1-4)GlcNAc(b1-3)Gal(b1-4)GlcNAc(b1-3)Gal(b1-4)GlcNAc
# Method in brief: as §1
# [16] = target: Neu5Ac(a2-6)Gal(b1-4)GlcNAc(b1-3)Gal(b1-4)GlcNAc(b1-3)Gal(b1-4)GlcNAc(b1-2)Man(a1-3)[Neu5Ac(a2-6)Gal(b1-4)GlcNAc(b1-3)Gal(b1-4)GlcNAc(b1-3)Gal(b1-4)GlcNAc(b1-2)Man(a1-6)]GalNAc
# Method in brief: as §1
# [17] = target: Neu5Ac(a2-6)Gal(b1-4)GlcNAc(b1-3)Gal(b1-4)GlcNAc(b1-3)GalNAc
# Method in brief: as §1
# [18] = target: Neu5Ac(a2-6)Gal(b1-4)GlcNAc(b1-3)Gal(b1-4)GlcNAc(b1-3)[Neu5Ac(a2-6)Gal(b1-4)GlcNAc(b1-3)Gal(b1-4)GlcNAc(b1-6)]GalNAc
# Method in brief: as §1
# [19] = target: Neu5Ac(a2-6)Gal(b1-4)GlcNAc(b1-3)Gal(b1-4)GlcNAc(b1-6)[Gal(b1-3)]GalNAc
# Method in brief: as §1
# [20] = target: Neu5Ac(a2-6)Gal(b1-4)GlcNAc(b1-3)Gal(b1-4)[Fuc(a1-3)]GlcNAc(b1-3)Gal(b1-4)[Fuc(a1-3)]GlcNAc
# Method in brief: as §1
# [21] = target: Neu5Ac(a2-6)Gal(b1-4)GlcNAc(b1-3)GalNAc
# Method in brief: as §1
# [22] = target: Neu5Ac(a2-6)Gal(b1-4)GlcNAc(b1-3)[Neu5Ac(a2-6)Gal(b1-4)GlcNAc(b1-6)]GalNAc
# Method in brief: as §1
# [23] = target: Neu5Ac(a2-6)Gal(b1-4)GlcNAc(b1-6)GalNAc
# Method in brief: as §1
# [24] = target: Neu5Ac(a2-6)Gal(b1-4)GlcNAc(b1-6)[Gal(b1-3)GlcNAc(b1-3)]Gal(b1-4)Glc
# Method in brief: as §1
# [25] = target: Neu5Ac(a2-6)Gal(b1-4)GlcNAc(b1-6)[Gal(b1-3)]GalNAc
# Method in brief: as §1
# [26] = target: Neu5Ac(a2-6)Gal(b1-4)GlcNAc6S
# Method in brief: as §1
# Neu5Ac(a2-6)GalNAc = target: Neu5Ac(a2-6)GalNAc
# Method in brief: as §1
# [27] = target: Neu5Ac(a2-6)GalNAc(b1-4)GlcNAc
# Method in brief: as §1
# [28] = target: Neu5Ac(a2-6)GalNAc(b1-4)GlcNAc6S
# Method in brief: as §1
# [29] = target: Neu5Ac(a2-6)GlcNAc(b1-4)GlcNAc
# Method in brief: as §1
# [30] = target: Neu5Ac(a2-6)GlcNAc(b1-4)GlcNAc(b1-4)GlcNAc
# Method in brief: as §1
binder,measurement,setting,value
Als3-N (Candida albicans) (protein) KTITGVFNSFNSLTWSNAATYNYKGPGTPTWNAVLGWSLDGTSASPGDTFTLNMPCVFKFTTSQTSVDLTAHGVKYATCQFQAGEEFMTFSTLTCTVSNTLTPSIKALGTVTLPLAFNVGGTGSSVDLEDSKCFTAGTNTVTFNDGGKKISINVDFERSNVDPKGYLTDSRVIPSLNKVSTLFVAPQCANGYTSGTMGFANTYGDVQIDCSNIHVGITKGLNDWNYPVSSESFSYTKTCSSNGIFITYKNVPAGYRPFVDAYISATDVNSYTLSYANEYTCAGGYWQRAPFTLRWTGYRNSDAGSNGIVIVATTRTVTDSTTAVTTLPFDPNRDKTKTIEILKPIPTTTITTSYVGVTTSYLTKTAPIGETATVIVDIPYHTTTTVTSKWTGTITSTTTHTNPTDSIDTVIVQVP,glycan array binding signal (z-score),[1],-0.114
same,glycan array binding signal (z-score),[2],-0.278
same,glycan array binding signal (z-score),[3],-0.243
same,glycan array binding signal (z-score),[4],-0.102
same,glycan array binding signal (z-score),[5],-0.341
same,glycan array binding signal (z-score),[6],-0.298
same,glycan array binding signal (z-score),[7],-0.168
same,glycan array binding signal (z-score),[8],-0.309
same,glycan array binding signal (z-score),[9],-0.151
same,glycan array binding signal (z-score),[10],-0.082
same,glycan array binding signal (z-score),[11],-0.293
same,glycan array binding signal (z-score),[12],-0.283
same,glycan array binding signal (z-score),[13],-0.287
same,glycan array binding signal (z-score),[14],0.388
same,glycan array binding signal (z-score),[15],-0.282
same,glycan array binding signal (z-score),[16],2.56
same,glycan array binding signal (z-score),[17],0.057
same,glycan array binding signal (z-score),[18],0.416
same,glycan array binding signal (z-score),[19],-0.112
same,glycan array binding signal (z-score),[20],-0.206
same,glycan array binding signal (z-score),[21],0.258
same,glycan array binding signal (z-score),[22],-0.064
same,glycan array binding signal (z-score),[23],-0.069
same,glycan array binding signal (z-score),[24],-0.35
same,glycan array binding signal (z-score),[25],0.187
same,glycan array binding signal (z-score),[26],-0.046
same,glycan array binding signal (z-score),Neu5Ac(a2-6)GalNAc,-0.278
same,glycan array binding signal (z-score),[27],-0.29
same,glycan array binding signal (z-score),[28],0.14
same,glycan array binding signal (z-score),[29],-0.106
same,glycan array binding signal (z-score),[30],-0.271
